# Legend:
# [1] = biological target: the molecule itself; test: fluorescence correlation spectroscopy in solution (diffusion coefficient D); D of the labelled protein alone, on dilution (Bcl-xLG, below 20 nM D grew) or with a second Bcl-2 protein; 150 mM NaCl, 20 mM Tris, pH 7.5; dimer to monomers
# [2] = biological target: the molecule itself; test: fluorescence cross-correlation spectroscopy (FCCS) in solution; both partners free in solution, one with a green and one with a red dye; 150 mM NaCl, 20 mM Tris, pH 7.5; incubated at least 30 min (1 h for the cBidG titration); protein concentrations up to 200 nM; CC above 2.8% indicates interaction
protein,measurement,setting,value
"full length human Bcl-xL S4C, C151A, labelled (natural protein, labelled with ATTO 488-maleimide (Bcl-xLG), ATTO 655-maleimide (Bcl-xLR) or Alexa 405 (Bcl-xL405), Bcl-xL, human, full length, with S4C, C151A; The label would sit on the single cysteine C4 (surmised); The three dye forms are written as one molecule; also called Bcl-xLG; Bcl-xLR; source: E. coli BL21/RILP, purified (IMPACT intein system, anion exchange), labelled) not shown",Kd,[1],~10 nM
same,stoichiometry N,[1],2
same,Kd,[2],~600 nM

# — article PMC5509671, “Quantitative interactome of a membrane Bcl-2 network identifies a hierarchy of complexes for apoptosis regulation” (Nature Communications, 2017)
